Experimental data from PMC4336329 (PLoS ONE, 2015).
Screen size: about 310,000 compounds; about 14,000 (4.5%) showed an effect of 50% or more. The effect is printed as a negative number. Some of the results follow.

Molecular target: human ether-à-go-go-related gene (hERG) potassium channel (human, UniProt Q12809)
Assay: primary screen, population patch clamp on CHO cells stably expressing hERG
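Also: peak tail current of the secondary pulse compared with the same well before compound.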

Chain of human ether-à-go-go-related gene (hERG) potassium channel (Q12809 whole entry, looked up): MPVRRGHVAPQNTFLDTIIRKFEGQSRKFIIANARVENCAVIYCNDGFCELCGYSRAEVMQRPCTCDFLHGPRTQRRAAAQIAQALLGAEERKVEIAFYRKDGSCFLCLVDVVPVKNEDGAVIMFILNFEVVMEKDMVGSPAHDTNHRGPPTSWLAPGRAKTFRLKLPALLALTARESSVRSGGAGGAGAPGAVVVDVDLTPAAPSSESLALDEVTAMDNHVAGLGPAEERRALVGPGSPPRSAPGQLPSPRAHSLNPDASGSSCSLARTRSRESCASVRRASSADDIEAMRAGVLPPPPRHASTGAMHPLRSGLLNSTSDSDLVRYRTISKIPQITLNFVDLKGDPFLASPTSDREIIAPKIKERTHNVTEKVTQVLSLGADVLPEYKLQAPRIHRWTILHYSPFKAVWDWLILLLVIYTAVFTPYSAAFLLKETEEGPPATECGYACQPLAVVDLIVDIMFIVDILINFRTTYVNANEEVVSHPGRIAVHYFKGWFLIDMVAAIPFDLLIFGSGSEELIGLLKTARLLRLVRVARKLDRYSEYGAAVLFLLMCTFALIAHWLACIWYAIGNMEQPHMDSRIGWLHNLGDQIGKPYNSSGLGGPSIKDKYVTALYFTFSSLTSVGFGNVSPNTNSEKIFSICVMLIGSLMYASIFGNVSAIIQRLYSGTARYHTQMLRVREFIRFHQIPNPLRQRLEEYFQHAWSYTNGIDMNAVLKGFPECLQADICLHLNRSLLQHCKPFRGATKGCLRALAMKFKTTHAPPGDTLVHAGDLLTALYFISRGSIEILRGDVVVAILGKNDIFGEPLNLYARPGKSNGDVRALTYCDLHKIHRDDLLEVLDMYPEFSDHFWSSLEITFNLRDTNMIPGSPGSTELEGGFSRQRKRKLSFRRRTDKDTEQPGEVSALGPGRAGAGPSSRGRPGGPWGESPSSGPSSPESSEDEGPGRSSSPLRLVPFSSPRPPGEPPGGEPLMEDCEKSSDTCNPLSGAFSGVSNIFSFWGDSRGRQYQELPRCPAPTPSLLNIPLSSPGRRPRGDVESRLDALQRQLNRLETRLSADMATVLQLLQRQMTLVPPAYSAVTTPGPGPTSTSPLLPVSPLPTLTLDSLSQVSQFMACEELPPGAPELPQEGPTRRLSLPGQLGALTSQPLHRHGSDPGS

Row | Structure (SMILES) | hERG current change (%, negative = inhibition) at 10uM
1 | CSc1cccc(NC(=O)c2c(Cl)cnn2C)c1 | -4.22%
2 | CCOC(=O)c1cc2c(=O)n3ccccc3nc2n(Cc2ccco2)c1=NC(=O)c1ccc(OC)cc1 | -54.3%
3 | CSc1nnc2c(n1)OC1(Nc3ccccc3-2)C(=O)Nc2ccccc21 (stereo not drawn) | 12.9%
4 | COCCNC(=O)C(c1ccc(C)o1)N(C(=O)c1snc(C(N)=O)c1N)c1ccc(C)c(C)c1 (stereo not drawn) | -15.5%
5 | COc1cc(OC)c2c(C)cc(=O)oc2c1C(CCN1CCOCC1)c1ccc2c(c1)OCO2 (stereo not drawn) | -68.4%
6 | NS(=O)(=O)OCCCc1ccc(C(F)(F)F)cc1 | 1.38%
7 | CC(=O)Oc1cccc(N2C(=O)C3C(C2=O)C2C=CC3C23CC3)c1 (stereo not drawn) | 5.03%
8 | C/C(=N\NC(=O)c1cc2ccccc2cc1O)c1cccs1 | 20.5%
9 | COc1ccc2sc(-c3ccc(SC)cc3)c(C#CC(C)(C)O)c2c1 | 11.6%
10 | c1coc(CNc2ncnc3nc[nH]c23)c1 | 21.6%
11 | CCOC(=O)CNC(=O)Cn1cnc2c(nnn2-c2cccc(OC)c2)c1=O | 17.5%
12 | Cn1c(=O)n(C)c2cc(N3CCCC3)c(NC(=O)c3cccc(F)c3)cc21 | -1.06%
13 | CC#CCN(Cc1ccco1)C(=O)c1ccc(OC2CCN(Cc3ccccn3)CC2)cc1 | -60.3%
14 | CNC(=S)NNC(=O)CNc1ccc(C)c(Cl)c1 | -1.25%
15 | COC(=O)c1ccc(Nc2ccc3nonc3c2[N+](=O)[O-])cc1 | 21.8%
16 | CCOC(=O)C(=O)NC(C)CCc1ccccc1 (stereo not drawn) | 6.72%
17 | CCc1ccc2c(c1)C1(NN=C(c3ccccc3)S1)C(=O)N2 (stereo not drawn) | 11.7%
18 | CC(C)(C)CC(C)(C)NC(=S)NC1CCN(Cc2ccccc2)CC1 | -16.9%
19 | COc1ccc(CCC(=O)NCc2cnn(C)c2)cc1 | -32.8%
20 | CCCc1nnc(NC(=O)CCC(=O)N2CCCCC2CC)s1 (stereo not drawn) | 1.62%
21 | CCS(=O)(=O)NC(C)C(c1cccs1)N1CCN(C)CC1 (stereo not drawn) | 14.1%
22 | CCOc1ccc(C(=O)Nc2ccc3c(c2)OCCO3)cc1 | -1.74%
23 | CCC(c1nnc(SCC(=O)Nc2ccc(Cl)cc2C(F)(F)F)n1C1CCCCC1)N(C)C (stereo not drawn) | -5.47%

Row | Structure (SMILES) | hERG current change (%, negative = inhibition) at 10uM
24 | O=C(CS(=O)(=O)c1ccccc1)c1ccc2c(c1)OCCO2 | 5.11%
25 | CCOc1cc(Br)ccc1S(=O)(=O)N1CC(C)OC(C)C1 (stereo not drawn) | -15.3%
26 | CN(c1ccc(OC(=O)CC2OC(=O)c3ccccc32)cc1)S(=O)(=O)c1ccccc1 (stereo not drawn) | -8.52%
27 | O=C(CSC1=NS(=O)(=O)c2ccccc2N1)Nc1cccc(F)c1 | 5.45%
28 | CCC(/C=C1\Sc2ccc(OC)cc2N1CC)=C\c1sc2ccc(OC)cc2[n+]1CCCS(=O)(=O)[O-] | 15%
29 | COc1ccc2c(c1OC)C(=O)OC2Nc1nc(-c2cc3cc(Br)ccc3oc2=O)cs1 (stereo not drawn) | 12.4%
30 | CCOc1ccc(NC(=S)N2c3ccccc3CC2C)cc1 (stereo not drawn) | 31.1%
31 | CC(C#N)Sc1ccc(S(=O)(=O)N(C)C2CCCCC2)cn1 (stereo not drawn) | -28.1%
32 | COP(=O)(OC)c1nc(-c2ccccc2)oc1NCc1ccccc1 | -9.13%
33 | O=C(CSc1nnc(-c2c[nH]c3ccccc23)o1)c1ccc(-c2ccccc2)cc1 | 11%
34 | Cl.OC(CN1CCN(Cc2ccccc2)CC1)c1ccc(F)cc1 (stereo not drawn) | -67.9%
35 | Cc1cc(C(=O)COC(=O)c2cccnc2Cl)c(C)n1CC1CCCO1 (stereo not drawn) | -20.1%
36 | CCN(CC)c1cc(Cl)c2nonc2c1N | -17.4%
37 | O=C(/C=C/c1ccccc1Cl)Nc1ccc(Cl)cn1 | 9.22%
38 | Cc1ccc2nc(C)c3c(c2c1)N(c1ccccc1)CC3 | -74.6%
39 | COc1cccc(CN(Cc2cccnc2)S(=O)(=O)c2ccc(-n3cnnn3)c(C)c2)c1 | -41.6%
40 | CC(=O)c1ccc(OCC(O)COc2ccc(C(C)=O)cc2)cc1 | -11.3%
41 | O=C(c1cccs1)N1CCCC(N2CCN(c3ccc(F)cc3)CC2)C1 (stereo not drawn) | -65.7%
42 | CC1CN(Cc2ccccc2Cl)CC(C)O1 (stereo not drawn) | 7.32%
43 | COCC(N)(c1ccccc1)c1nc2ccccc2n1C (stereo not drawn) | -1.19%
44 | CC1CN(CC(=O)NN=C(c2ccccc2)c2ccccc2)CC(C)O1 (stereo not drawn) | 12.8%
45 | CN1CCN(C2=Nc3cc(Cl)ccc3Nc3ccccc32)CC1 | -10.3%
46 | Cc1ccc(C(=O)NCC(=O)Nc2cc(C)ccn2)cc1 | 15.6%

Row | Structure (SMILES) | hERG current change (%, negative = inhibition) at 10uM
47 | O=C(NCc1ccc(N2CCCC2=O)cc1)c1cn(CCc2ccccc2)nn1 | 3.47%
48 | NNC(=O)CCN1CCCCC1 | 10.3%
49 | O=C(Cn1cnc2c(nnn2Cc2ccc(F)cc2)c1=O)Nc1cccc(F)c1 | 1.5%
50 | O=C(NCC1CCCO1)c1cc2c(=O)[nH]c3ccccc3c2s1 (stereo not drawn) | 11.9%
51 | CCCCS(=O)(=O)NC1=NCN(Cc2ccco2)CN1 | 26.2%
52 | O=C(CC1SCCNC1=O)Nc1cccc([N+](=O)[O-])c1 (stereo not drawn) | 18.6%
53 | COc1ccc(C(=O)C(C)[n+]2ccc(-c3nnc4n3CCCCC4)cc2)cc1.[Br-] (stereo not drawn) | -4.54%
54 | O=C(NNC(=O)c1ccc(-c2ccccc2)cc1)Nc1ccccc1 | 11.1%
55 | CC1(C)CC(=O)N(c2cccc(C(F)(F)F)c2)C(=O)C1 | 16.4%
56 | COc1ccc(C(=O)n2nc(C)cc2C)cc1OC | -3.18%
57 | CC(=O)c1cccc(NC(=O)C(C)OC(=O)CN2C(=O)NC(C)(C)C2=O)c1 (stereo not drawn) | 23.8%
58 | CC(=O)c1cccc(NC(=S)NCCc2ccc(F)cc2)c1 | 2.15%
59 | CCC(=O)NCCc1nc2cc(NC(=O)COc3ccccc3)ccc2n1C | 16.6%
60 | Cc1cc(=O)oc2cc(OCC(=O)OCC(=O)Nc3ccc(C(C)C)cc3)ccc12 | -0.188%
61 | C[C@H]1C=CC(=O)O[C@H]1c1ccccc1 | 11.5%
62 | COc1ccc(Cn2c(CCC(=O)Nc3ccc(C)c(C)c3)nc3cccnc32)cc1 | 3.94%
63 | O=C(CNCc1ccco1)Nc1ccc(Oc2ccccc2)cc1.O=C(O)C(=O)O | -21.3%
64 | Cc1cccc(NS(=O)(=O)c2ccc(-n3cccn3)cc2)c1C | 0.598%
65 | Cc1ccc(-n2c(NN)nc3ccccc3c2=O)c(C)c1 | 7.91%
66 | COc1cc2oc3ccccc3c2cc1N(CC(=O)N1CCCCC1)S(=O)(=O)c1ccc(C)cc1 | 7.19%
67 | CCCCn1c2nc3ccccc3nc2c2c(=O)n(CCC(C)C)cnc21 | 1.94%
68 | CCOC(=O)C1C(=O)C=C(c2ccc(Br)cc2)CC1c1ccco1 (stereo not drawn) | -23.2%
69 | O=C(CN1CCOCC1)Nc1c(Cl)cc(Cl)cc1Cl | -2.17%

Row | Structure (SMILES) | hERG current change (%, negative = inhibition) at 10uM
70 | Cc1nc([N+](=O)[O-])c(C(=O)OCc2ccccc2F)n1C | -3.69%
71 | Cc1ccc(NC(=O)CCC(=O)n2nc(C)cc2C)c(C)c1 | -10%
72 | CCN(CC(=O)Nc1ccc(NC(C)=O)cc1)CC(=O)Nc1ccc(Cl)c(Cl)c1.O=C(O)C(=O)O | 19%
73 | COc1ccc(/C=N/NC(=O)CCCCCNC(=O)c2ccccc2)cc1 | -23.9%
74 | O=[N+]([O-])c1ccc(C2NS(=O)(=O)N=C3CCCCCN32)cc1 (stereo not drawn) | 0.721%
75 | COC(=O)c1ccc(N2C(=O)C3CC(C)=C(C)CC3C2=O)cc1 (stereo not drawn) | 3.73%
76 | CC(C)(C)OC(=O)N1CCC[C@H]1c1nnc(SCC(=O)Nc2cccc(Cl)c2)o1 | -19.5%
77 | COc1ccc(/C=N/NC(=O)C2CC2)c(OC)c1OC | 12.9%
78 | CCCCOC(=O)COc1cc(C)cc2oc(=O)c3c(c12)CCC3 | -1.09%
79 | O=c1oc2ccccc2cc1-c1nc2c(s1)CCc1ccccc1-2 | -8.72%
80 | CCC(C)n1c(/C=C/c2ccccc2)nc2ccccc21 (stereo not drawn) | -31.2%
81 | Cn1cc(S(=O)(=O)Cc2ccc(F)cc2)c2ccccc21 | 12.4%
82 | CN(C1CCCCC1)S(=O)(=O)c1cccc(C(=O)Nc2ccccn2)c1 | -53.7%
83 | Cc1ccc(-c2nc(CSCC(=O)N3CCN(C(=O)c4ccco4)CC3)c(C)o2)cc1 | -32.7%
84 | Cc1ccc(C(=O)N[C@@H](Cc2ccccc2)C(=O)N2CCC3(CC2)NCCc2[nH]cnc23)cc1C | 7.87%
85 | CS/C(=C\[N+](=O)[O-])Nc1ccc(C)cc1 | 2.14%
86 | O=C(CN(CCc1ccccc1)C(=O)CN1C(=O)COc2ccccc21)NCc1ccco1 | -17.8%
87 | O=C(Oc1ccc(O)cc1)C12CC3CC(CC(C3)C1)C2 | 8.92%
88 | CC(=O)Oc1ccc(C2OC(=O)c3ccccc3N2C(C)=O)cc1 (stereo not drawn) | 1.12%
89 | Cc1cc(C(=O)NC2CCCCC2)c(C)o1 | 0.345%
90 | CC(C)(C)NC(=O)CN(C(=O)CCC(=O)Nc1nccs1)c1ccc(F)c(Cl)c1 | -11.8%
